# Experimental data: PubChem BioAssay AID1347417 (National Center for Advancing Translational Sciences (NCATS), 2020)
# The whole screen tested about 120,000 compounds, of which about 5,300 (4.4%) were called active. The inconclusive results got no clear call from the source; some entries with a clear call stand among them for comparison. Calls come from the whole dose curve; as a rule, active = well fitted inhibition curve with a large enough effect; inconclusive = small, poorly fitted or top-dose-only effect; inactive = no such curve, though single readings can be large or run the other way. Potencies beside an inconclusive call are fits to weak or partial responses and may not hold up.
# Experiment: qHTS Primary assay for Inhibitors of Plasmodium falciparum Dd2 growth in vitro; note: nearly all actives have a fitted effect of over 65% in size;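 for activity, negative = inhibition: plate controls were DMSO vehicle for no effect and reference drug for full effect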
# Details: P. falciparum Dd2 growth, SYBR Green, 72 h; activity, negative = inhibition: at 28.9 µM (top of the series) unless noted; series mostly up to 28.9 µM
# Description: Malaria, a parasitic disease spread to humans through the bite of a Plasmodium infected Anopheles mosquito, continues to be a global health burden affecting millions of people, with an estimated 228 million cases and 405,000 deaths in 2018. Concerns about safety and limitations of current antimalarial treatments strongly emphasize the need to develop new therapeutic options. The scarce number of chemotypes and validated drug targets with efficacy against the liver stage, have hindered development of new antimalarials. To address this, a chemoprophylactic drug discovery effort was conducted through a combined phenotypic high-throughput asexual blood stage and liver stage screen, providing a robust foundation to identify liver-stage active lead chemotypes. Compounds were initially screened against Plasmodium falciparum Dd2 strain parasites using a in vitro SYBRGreen-1 based 72 hr proliferation assay to identify novel chemotypes to advance to liver stage assays. NIH/NCATS Early Translation Branch Assay Submitter (PI): Anton Simeonov Ph.D.
# Malaria-vivax Assay Protocol: PROTOCOL TABLE (as described by Inglese et al., 2007) SEQUENCE No. (e.g., 1, 2, 3, etc.); […] (e.g., Cells, Incubation, Reagent, etc.); VALUE; DESCRIPTION SEQUENCE, Parameter, Description 1; Reagent; 3 uL complete malaria growth medium, 1536 TC treated Black clear bottom plate 2; Controls; 23 nL positive control artesunate (300 nM final) to column 1; Neutral control DMSO to columns 2-4 3; Compound; 23 nL of compounds in dose response concentration (29 uM to 0.5 nM final) 4; Reagent; 5 uL malaria infected red blood cells (2.5% hematocrit final, 0.3% parasitemia 5; Time; 72 hours at 37C (5% O2, 5% CO2, 90% N2; 95% Rh) 6; Reagent; 2 uL lysis buffer/SYBRGreen-1, 25 sec shake immediately following dispense 7; Time; ~16 hours at 37C (5% O2, 5% CO2, 90% N2; 95% Rh) 8; Detector; EnVision (PerkinElmer) bottom read at 485/14nm excitation and 535/25 nm emission NOTES (numbers refer to sequence above): 1; Complete Malaria Growth Media: 1X RPMI-1640 w/L-glutamine, 5.5g/L Albumax II, 367 uM Hypoxanthine, 25 mM HEPES, 0.25% Sodium Bicarbonate, 35 uM Gentamicin sulfate 2; Controls were added using the Kalypsis Pintool (Wako USA) equipped with 1536 pinhead 3; Compounds were added in a 7-point, titration with a high final concentration of 29 uM by Pintool from seven inter-plate titrations of library plates and two DMSO control plates at the beginning and end (see Yasgar et al., 2008). 4; Red blood cells infected with Plasmodium falciparum Dd2 parasites were used. 6; Lysis buffer: 20 mM Tris-HCl, 10 mM EDTA, 0.16% Saponin, 1.6% Triton-X, 10X SYBR Green. REFERENCE: Inglese J, Shamu CE, Guy RK. 2007. Reporting data from high-throughput screening of small-molecule libraries. Nat Chem Biol. doi:10.1038/nchembio0807-438 Yasgar A, Shinn P, Jadhav A, Auld D, Michael S, Zheng W, Austin CP, Inglese J, Simeonov A. 2008. Compound Management for Quantitative High-Throughput Screening. J Lab Autom 13:79-89. doi:10.1016/j.jala.2007.12.004
# Potency is the fitted concentration of half-maximal effect; tags give direction and shape of the fitted curve.
Compound,Potency,"activity, negative = inhibition",outcome
COc1ccc(Cn2c(C(=O)O)c(CNCc3cccc(OC)c3)c3ccc(C)cc32)cc1,"inconclusive: 3.16 µM [inhibitor, full curve, poor fit]",–,–
COC(=O)c1cnn(-c2ccc(C(=O)Nc3cccc(C(C)=O)c3)cc2)c1N,"inconclusive: 0.794 µM [inhibitor, full curve, poor fit]",–,–
COc1ccc(NC(=O)Cn2c(=O)n(CCCC(=O)NCc3ccccc3OC)c(=O)c3ccccc32)cc1Cl,"inconclusive: 11.2 µM [inhibitor, partial curve, poor fit]",–,–
Cc1nn(C)c(C)c1-c1ccnc(NCC2COc3ccccc3O2)n1 (configuration not stated),"inconclusive: 8.91 µM [inhibitor, partial curve]",–,–
CC(C)c1nc2ccccc2n1CC(=O)N1CCc2c(nc[nH]c2=O)C1,–,inactive: -5.76%,–
CN(CCC(N)=O)Cc1ccccc1OCC(O)CN1CCc2ccccc2C1 (configuration not stated),"inconclusive: 14.1 µM [inhibitor, single point]",–,–
COc1ccc(-c2nc(-c3c(C)noc3C)cc3cc(C(C)C)oc23)cn1,active: 8.91 µM,–,–
CCn1cc(C(=O)NCCCOC(C)C)c(=O)c2cc(S(=O)(=O)N3CCc4ccccc4C3)ccc21,"inconclusive: 10 µM [inhibitor, single point]",–,–
CSc1cccc(NC(=O)Cn2c(N3CCC(C)CC3)nc(C)cc2=O)c1,"inconclusive: 7.94 µM [inhibitor, partial curve, poor fit]",–,–
CCC(C(=O)Nc1ccccc1C(=O)OC)n1c(C)c2cnn(-c3ccccc3)c(=O)c2c1C (configuration not stated),"inconclusive: 17.8 µM [inhibitor, single point]",–,–
Cc1ccc(C(=O)N[C@H]2CO[C@H]3[C@@H]2OC[C@@H]3Nc2nccc(-c3ccc4c(c3)OCO4)n2)cc1,"inconclusive: 3.55 µM [inhibitor, full curve, poor fit]",–,–
Cc1ncc2c(c1CNC(=O)c1ccccc1C1CCNC1)CCNC2 (configuration not stated),–,inactive: 2.69%,–
CCCCn1cc(S(=O)(=O)c2ccc(C)c(C)c2)c(=O)c2cc(F)c(N3CCN(C)CC3)cc21,"inconclusive: 10 µM [inhibitor, partial curve]",–,–
COCCN1C(=O)CCC2(C(=O)NCCCc3ccccc3)CCCC=C12 (configuration not stated),–,–,inactive
c1cncc(-c2cnc3n[nH]c(-c4ccc5c(c4)OCO5)c3n2)c1,"inconclusive: 3.55 µM [inhibitor, single point]",–,–
COC1C(=O)N(c2cccc(F)c2)C12CCNCC2 (configuration not stated),"inconclusive: 1.58 µM [inhibitor, full curve]",–,–
OC1CN(Cc2ccccc2)CCN(c2nc(-c3ccccc3)no2)C1 (configuration not stated),"inconclusive: 8.91 µM [inhibitor, partial curve]",–,–
CCOc1ccc(-n2c(SCc3nc(-c4ccc(OC)cc4)no3)nnc2-c2ccncc2)cc1,"inconclusive: 7.94 µM [inhibitor, partial curve, poor fit]",–,–
C[S+](=O)([O-])c1cccc(Nc2n[nH]c(C(O)c3ccccc3)n2)c1 (configuration not stated),–,inactive: 3.07% [at 44.1 µM],–
Fc1ccc(CN2CCC3(CC(Cc4ccccc4)=NO3)C2)cc1 (configuration not stated),"inconclusive: 2.82 µM [inhibitor, partial curve, poor fit]",–,–
COCc1noc(CCNC(=O)[C@H]2CCC[C@@H](O)C2)n1,"inconclusive: 3.98 µM [inhibitor, single point]",–,–

Compound,Potency,"activity, negative = inhibition",outcome
Cc1nc2scc(CC(=O)N3CCCC3)n2c(=O)c1-c1cc(C)n(-c2ccc(F)cc2)n1,"inconclusive: 0.0708 µM [inhibitor, full curve, poor fit]",–,–
COc1ccccc1CCC(=O)N1CCC2(CC1)NC(=O)N(c1ccccc1)N2,"inconclusive: 7.94 µM [inhibitor, single point]",–,–
CN1CCN(Cc2nnc(C(=O)N3CCC[C@@H]3C(c3ccccc3)c3ccccc3)n2-c2ccccc2)CC1,"inconclusive: 1.58 µM [inhibitor, partial curve, poor fit]",–,–
CS(=O)(=O)c1ccc(CN2CCOC[C@H]2c2ncc(-c3ccc(Cl)cc3)[nH]2)cc1,active: 11.2 µM,–,–
CN(C)[C@@H]1CN(C(=O)c2ccccc2Cl)C[C@H]1CO,–,inactive: -6.07%,–
O=C(C1CCN(C(=O)N2CC3CC(C2)[C@H]2CCCC(=O)N2C3)CC1)N1CCc2ccccc2C1 (some centres not stated),"inconclusive: 3.98 µM [inhibitor, single point]",–,–
COc1ccc(NC(=O)N2C[C@@H](F)[C@@H](OCc3nc4ccccc4[nH]3)C2)cc1,–,inactive: -16.9% [at 44.1 µM],–
Cc1ccc2c(=O)c(C(=O)c3ccccc3)cn(CC(=O)Nc3ccc4c(c3)OCCO4)c2n1,"inconclusive: 8.91 µM [inhibitor, single point]",–,–
Cc1nc2ccccc2n1CCc1nc2c3ccccc3nc(SCc3cccc(F)c3)n2n1,"inconclusive: 6.31 µM [inhibitor, partial curve, poor fit]",–,–
Cc1cc(C)cc(OCCn2c(C3CC(=O)N(c4ccccc4Cl)C3)nc3ccccc32)c1 (configuration not stated),"inconclusive: 14.1 µM [inhibitor, partial curve, poor fit]",–,–
COc1ccc(-c2noc([C@@H]3CCCN3C(=O)c3cccc(C)c3)n2)cc1,–,inactive: -6.54%,–
CC1=C(C(=O)Nc2ccccc2)C(c2ccccc2C)n2ncc(C(=O)Nc3ccccc3)c2N1 (configuration not stated),"inconclusive: 7.08 µM [inhibitor, partial curve, poor fit]",–,–
Cc1cnccc1CNC(=O)c1cc(COc2ccc3c(c2)OCO3)[nH]n1,–,inactive: -10.6%,–
c1cncc(CN2CC(N3CCc4ccccc43)C2)c1,"inconclusive: 15.8 µM [inhibitor, single point]",–,–
CCc1nc(C)c(C(=O)N2CCC3(CCCN(Cc4cccc(C)c4)C3)C2)o1 (configuration not stated),"inconclusive: 12.6 µM [inhibitor, partial curve, poor fit]",–,–
Cc1cc(OCCN2CCOCC2)c(C)c2c1CC[C@@H]([C@H](C)C(=O)NCc1cccnc1)C2,–,–,inactive
Cc1cc(C)n(CC(=O)N2[C@H]3CC[C@@H]2c2cnc(-c4ccc(F)cc4)nc2C3)n1,"inconclusive: 3.55 µM [inhibitor, partial curve, poor fit]",–,–
O=C(/C=C/c1cn(CC(O)CN2CCCCCC2)c2ccccc12)c1ccccc1 (configuration not stated),active: 10 µM,–,–
Cn1ncc(N2CCC(NC(=O)Cc3ccc(F)cc3)CC2)cc1=O,–,inactive: -11.2%,–
COc1ccc(-n2ccnc(NCCc3ccc(S(N)(=O)=O)cc3)c2=O)cc1,–,–,inactive
CC(C)Cn1cc2c3c(cccc31)CNCC2,–,inactive: -15%,–

Compound,Potency,"activity, negative = inhibition",outcome
CC(C)(C)c1ccc(-c2cc(C[C@H]3CNCC[C@H]3CC(=O)N3CCOCC3)no2)cc1,"inconclusive: 2.51 µM [inhibitor, single point]",–,–
C#CCN(C)C(=O)C[C@@H]1c2nc(NC(=O)c3ccc(OC)cc3)sc2C[C@@H]2[C@](C)(CO)[C@H](O)CC[C@]21C,"inconclusive: 1 µM [inhibitor, partial curve]",–,–
O=C(CCN1Cc2ccccc2C1=O)N[C@H](c1cccs1)C1CC(O)C1 (some centres not stated),–,inactive: -3%,–
COc1ccccc1NC(=O)CSc1nc2c(oc3ccccc32)c(=O)n1-c1ccc(C)cc1,"inconclusive: 1 µM [inhibitor, full curve, poor fit]",–,–
CS(=O)(=O)Nc1ccc([C@H]2OCC(=O)N(Cc3ccc(F)cc3)[C@@H]2CO)cc1,–,–,inactive [at 44.1 µM]
COc1ccccc1CN1CCC2(Cc3ccccc3CNC2=O)C1 (configuration not stated),"inconclusive: 5.01 µM [inhibitor, partial curve, poor fit]",–,–
Cc1ccc(S(=O)(=O)N2CC(C(=O)NC3CCCCC3)C3(CCOCC3)C2)cc1F (configuration not stated),"inconclusive: 12.6 µM [inhibitor, single point]",–,–
COC(=O)C1=C(C)N=C2SC=C(CC(=O)N3CCOCC3)N2C1c1ccc([N+](=O)[O-])cc1 (configuration not stated),"inconclusive: 5.01 µM [inhibitor, partial curve, poor fit]",–,–
O=C(CCCn1c(=O)c2cccn2c2cccnc21)NCCc1ccc(Cl)cc1,"inconclusive: 17.8 µM [inhibitor, single point]",–,–
Cc1c(C(C)NC(=O)CN2CC(=O)NC2=O)cnn1-c1ccc(F)cc1F (configuration not stated),–,inactive: -16.8%,–
CCOC(=O)c1ccccc1NC(=O)CN(c1ccccc1OC)S(=O)(=O)c1ccc(C)cc1,"inconclusive: 17.8 µM [inhibitor, single point]",–,–
CC#CCn1cc2c3c(cccc31)[C@H](CC(C)C)N[C@H](C(=O)N1CCN(C(C)=O)CC1)C2,"inconclusive: 4.47 µM [inhibitor, single point]",–,–
Cc1c(C(=O)Nc2ccccc2Br)oc2ccc(S(=O)(=O)N3CCCCC3)cc12,–,inactive: 20.9%,–
CCCN(CC1CCCO1)C(=O)c1csc2nc(-c3cccc(C(F)(F)F)c3)cn12 (configuration not stated),"inconclusive: 11.2 µM [inhibitor, single point]",–,–
CCOCc1nc(C2CCCN(C(=O)c3ccc(OC)cc3OC)C2)no1 (configuration not stated),–,–,inactive
CC(C)NC(=O)C[C@@H]1C[C@H]2O[C@H](CNCc3ccccc3OC(F)(F)F)[C@@H](O)[C@H]2O1,–,inactive: 2.82% [at 44.1 µM],–
CCCCn1c(-c2ccc(S(=O)(=O)N3CCOCC3)cc2)csc1=Nc1ccccc1,"inconclusive: 17.8 µM [inhibitor, single point]",–,–
COCCNC(=O)CC1=CSC2=NC(C)=C(C(=O)OC(C)C)C(c3ccc([N+](=O)[O-])cc3)N12 (configuration not stated),"inconclusive: 8.91 µM [inhibitor, partial curve, poor fit]",–,–
COc1cc(OC)cc(C(=O)N2CCC[C@H]2c2nc(-c3ccc(OC)c(OC)c3)no2)c1,–,inactive: 14.1%,–
CC(=O)Nc1ccc(-c2ccc(=O)n3c2[C@@H]2C[C@@H](CN(S(=O)(=O)c4ccc(Cl)cc4)C2)C3)cc1,"inconclusive: 5.01 µM [inhibitor, partial curve, poor fit]",–,–
